Consider four compounds from PubChem BioAssay (NCI).

Molecules are shown by their SMILES.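 Protocol summary: plate cells (96-well), add compound at 5 concentrations, incubate 48 h, interpolate endpoints linearly. GI50: concentration for 50% inhibition of growth. Definition used: TGI = concentration required for complete inhibition of growth.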 Some results are limits rather than exact numbers.

The test deals with NCI-H322M lung. The test can be described thus: growth of human tumour cells (NCI), 48 h.
As to `O=C(/C=C/c1ccccc1Cl)Nc1ncc(Cc2cc(Cl)ccc2Cl)s1`, the GI50 is 2780 nM and the TGI is over 100000 nM.

`Cn1cc(-c2cc(N)n3nc(-c4cn(C)c5ccc(F)cc45)cc3n2)c2cc(F)ccc21`: the GI50 is 1810 nM and the TGI came to 3960 nM.

With `Cc1[nH]c(C(=O)Nc2ccccc2OCc2cccc(C(=O)N3CCC[C@@H](N)C3)c2)c(Cl)c1Cl`, the GI50 is 1830 nM and the TGI is 3450 nM.

Turning to `COC1CCN(Cc2ccc3c(NNC(=O)c4cnccn4)nc4cc(F)ccc4n23)C1` (stereo not drawn), the GI50 was 1380 nM and the TGI was over 100000 nM.
